Results reported in the supplement of paper PMC11417369.
Some of the results follow.

What follows are sequences tested on PF3D7_0420300 AP2 domain 1 (GST-tagged) (assay: gcPBM binding intensity (ln(normalized median fluorescence intensity)); higher = stronger DNA binding).
Procedure, shortened: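 An Agilent 4 × 180k array of primer-extended double-stranded 36-bp intergenic genomic probes, with negative controls, was incubated for 1 h with GST-tagged P. falciparum DNA-binding domains expressed in E. coli. Alexa488 anti-GST antibody detected bound protein, scanned at 488 nm. Binding intensity is the highest Masliner-normalised natural-log median intensity across replicate spots of either probe orientation.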

First: TTTTGTCAACATTTTTATATTAGGTCTTGAACGATT [GTGCAC_negctrl_site72]
Second: AGTAATAAGTAATTTACACACATATTATAGCATCAC [CACACA_site6971]
The “gcPBM binding intensity (ln)” value of the first is lower: 9.03 for the first, 9.78 for the second.

Compared with “AGAATCACCAAATATGTACACACCTTAACATGTTTA [CACACA_site2068]”, “ATATATATGGTCATTTGTACATATCGTGAGAGCTGC [XGTACX_site4117]” is lower in “gcPBM binding intensity (ln)” value: 9.55 for the first, 9.24 for the second.

First: ATATAACATAATGGATGTACATGTATAAATATAAAA [XGTACX_site8228]
Second: TATATTATAAATTAATGTACGTAATTTTTTTTTTTT [XGTACX_site2500]
The “gcPBM binding intensity (ln)” value of the first is higher: 9.45 for the first, 8.98 for the second.

Going from “TTTTTTTTTTACTTCACACATATACATTTATATTTA [CACACA_site4385]” to “CCTACAATTCGTAATACACACACATATATATATATA [CACACA_site9251]”, the “gcPBM binding intensity (ln)” value rises from 9.4 to 9.73.

First: TAATTTTGTAAAAATTGTACATATTTATCTTTTTAT [XGTACX_site4305]
Second: TCATATTATAAAAAATGTACAAGGAAAAAATATATA [XGTACX_site337]
The “gcPBM binding intensity (ln)” value of the first is lower: 9.08 for the first, 9.46 for the second.

Compared with “ACATTATATAAAATATGTACACATAAATAAATAAAT [XGTACX_site5031]”, “AAAAAAAAAAAAAACACACACATATAATATATTTAA [CACACA_site1337]” is higher in “gcPBM binding intensity (ln)” value: 9.42 for the first, 9.69 for the second.

First: AAAAAATTCAAAATCACACATAAAAAAGGACACATA [CACACA_site5972]
Second: GATTAAATTTGACACTGTACAAAAAATAAAATGAGG [XGTACX_site504]
The “gcPBM binding intensity (ln)” value of the first is higher: 9.74 for the first, 9.29 for the second.

Compared with “ATGAATATAAAATATACACACTTATATATTGAATGA [CACACA_site4274]”, “GTTAATTCATTAAGGACACACAAAAAAAAAAAAAAA [CACACA_site998]” is lower in “gcPBM binding intensity (ln)” value: 9.42 for the first, 9.17 for the second.

Compared with “CCAACATAGAGGGGCACACACATATATACATAAAAA [CACACA_site1847]”, “CTTATATGAAGCCTCTTTATTCATAAATAAGAATAA [TGCATGCA_negctrl_site120]” is lower in “gcPBM binding intensity (ln)” value: 9.68 for the first, 8.76 for the second.

First: AGTATACATATATATACACACACATATATATATATA [CACACA_site7883]
Second: AAACAACATGGACACGCACACACAAAAAAAGCATGC [CACACA_site73]
The “gcPBM binding intensity (ln)” value of the first is lower: 9.61 for the first, 9.96 for the second.

Going from “TTAACAAAATTTCCGTGTACGTAAATAAGAACATAG [XGTACX_site7200]” to “TTTTTTGAAAATAAAAGTACAAATTTTATATTTAAA [XGTACX_site2758]”, the “gcPBM binding intensity (ln)” value falls from 9.3 to 8.6.

Compared with “ACAAACTAAAAAAGAAGTACAAATCGTATTAATAAT [XGTACX_site8684]”, “AGAAAAAAACGGTACAGTACACATAAACTAATTATT [XGTACX_site8617]” is higher in “gcPBM binding intensity (ln)” value: 9.59 for the first, 9.63 for the second.

First: TATTATATATGGAAGTAATAATATATATATATATAT [GTGCAC_negctrl_site63]
Second: AAATTGTTAAAAAGAAGTACATTCTTTTATTTCTTA [XGTACX_site540]
The “gcPBM binding intensity (ln)” value of the first is higher: 9.15 for the first, 8.92 for the second.

Compared with “TAAATGTGTATATATTGTACAAATATTAATACATAC [XGTACX_site8102]”, “AAAGAACTTAATGCTGCACACAAAAAAAAGGAAAAA [CACACA_site8375]” is higher in “gcPBM binding intensity (ln)” value: 9.33 for the first, 9.57 for the second.

Going from “ATAATGAAGACTTTTTTACACACTTCATATATTATA [CACACA_site8630]” to TGATATTTTTCCATAGTGCAAAATATAGTAATGTAT, the “gcPBM binding intensity (ln)” value falls from 9.48 to 9.11.

Compared with “TTACATACATACAAGTGTACGCATATATTAATATTA [XGTACX_site4006]”, “ATATGTACAAGTTATACACACATGTACAGTTATATA [CACACA_site6706]” is higher in “gcPBM binding intensity (ln)” value: 9.23 for the first, 9.48 for the second.

Going from TTTAACATTTCAGATGTGCACATTTTCCGAACCAGT to “AGAACGACTAAGCAGTGTACATTTTGTATATACAAT [XGTACX_site2831]”, the “gcPBM binding intensity (ln)” value falls from 9.33 to 9.25.

First: TTCTATATATTATATGCATGTAAAACATATTAAAAT [TGCATGCA_site662]
Second: TTTTTATGAAAATAAACACACGATTTATTATATATA [CACACA_site1311]
The “gcPBM binding intensity (ln)” value of the first is higher: 9.05 for the first, 9.02 for the second.

Compared with “TGCATGTAATTTTTGTGTCCACATAAAATATTTAAT [XGTACX_site5652]”, “TTTTTCAATTGTAGTGGTACAGATATAATTATCTCT [XGTACX_site5500]” is higher in “gcPBM binding intensity (ln)” value: 9.04 for the first, 9.08 for the second.

Going from “ATGTACTATGATAATGCATGCAATAATACATTTTTA [TGCATGCA_site318]” to “TAATATATATATAATACACACTATTTTAATCACATA [CACACA_site4849]”, the “gcPBM binding intensity (ln)” value rises from 9.18 to 9.35.

Compared with “TTATTATGTATATATGCACACAATACCCAAAACAAC [CACACA_site80]”, “GAAGATTTATCTTGCACACGCAAAAAAAAAAAAAAA [CACACA_site154]” is lower in “gcPBM binding intensity (ln)” value: 9.64 for the first, 8.81 for the second.

Going from “TTTATTGCTCTATATGCACACCTTAATTCTTCATTT [CACACA_site8682]” to “TACGTAAATTCTAATACACACTATAGGATATTCTGC [CACACA_site7248]”, the “gcPBM binding intensity (ln)” value falls from 9.56 to 9.25.

“AAAAATAATCATAGTAGTACAAAAAAAAAAAAAAAA [XGTACX_site3736]” was tested, and the “gcPBM binding intensity (ln)” value was 8.81.
